# Measured values as given in PubChem BioAssay AID662 (National Center for Advancing Translational Sciences (NCATS), 2007).
# In all, about 71,000 compounds went through this assay and about 1,800 (2.5%) were called active. Inconclusive means that the source gave no clear call. Such entries were picked first, then a sample of the others. The call rests on the fitted dose curve; in most records, active means well fitted activation curve with a large enough effect in the signal ratio, with a control signal flat (not every such curve was filed as active); inconclusive means small, poorly fitted or top-dose-only effect, or effect the other way, or a change in a side signal; inactive means flat fitted curve, though single readings scatter; the % refers to the signal ratio. Potencies beside an inconclusive call are fits to weak or partial responses and may not hold up.
# Test: Cell signaling CRE-BLA (Fsk stim); on activity change, negative = inhibition: % of control where 0% means no effect
# Conditions: CHO CRE-bla reporter (cAMP response element driving beta-lactamase), forskolin EC10, beta-lactamase ratio
# Summary of the method: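 Reporter-gene assay: CHO cells with beta-lactamase behind cAMP responsive elements, co-treated with compound and EC10 NKH 477 for 3 hours at 37 degrees Celsius. Activity came from the 460/530 nm CCF4 emission ratio.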
# [1] = activity change, negative = inhibition: at 38.2 µM (top of the series) unless noted
# Potency means the concentration at half of the fitted maximal effect; tags describe the fitted curve by direction and shape.
structure (smiles),measurement,setting,value
O=c1c2cc(N3CCOCC3)ccc2[nH]c(=S)n1Cc1ccccn1,"activity change, negative = inhibition",[1],inactive
COCc1cc(=O)[nH]c(/N=C(\N)Nc2ccc(C)cc2)n1,Potency,[1],active: 12.6 µM
COc1cccc(Oc2cn[nH]c2-c2ccc(OC)cc2O)c1,"activity change, negative = inhibition",[1],inconclusive: -1.6%
COc1ccc(CNc2nc3c(c(C(F)(F)F)n2)CCCCC3)cc1,Potency,[1],"inconclusive: 10 µM [rising, partial curve]"
Cc1ccc(C(c2nnnn2CC2CCCO2)N2CCN(C(=O)c3ccco3)CC2)cc1 (centres undefined),"activity change, negative = inhibition",[1],inactive
CCNS(=O)(=O)c1ccc(OCCNS(C)(=O)=O)cc1,"activity change, negative = inhibition",[1],inconclusive: 2.29%
Cc1c(Br)cc(-c2nnco2)cc1Br,"activity change, negative = inhibition",[1],inactive
O=C(O)CSC(NC(=O)c1cccnc1)(C(F)(F)F)C(F)(F)F,"activity change, negative = inhibition",[1],inconclusive: 12.7%
CCOC(=O)c1c(C)[nH]c(C)c1C(=O)CSc1nnc(-c2ccco2)n1Cc1ccccc1,Potency,[1],"inconclusive: 10 µM [rising, partial curve]"
CCn1c(SCC(=O)Nc2cc(C)on2)nc2sc(C)c(C)c2c1=O,Potency,[1],"inconclusive: 3.16 µM [rising, full curve]"
CCCc1c(OCCCOc2ccc(OCC(=O)O)cc2)ccc(C(C)=O)c1O,Potency,[1],active: 2.51 µM
Cc1ccc(S(=O)(=O)c2c(N)n(CC3CCOC3)c3nc4ccccc4nc23)cc1 (centres undefined),Potency,[1],"inconclusive: 12.6 µM [rising, single point]"
CC1CN(c2oc(-c3ccco3)nc2S(=O)(=O)c2ccccc2)CC(C)O1 (centres undefined),"activity change, negative = inhibition",[1],inactive
c1ccc(N2CCN(c3nc4cc5c(cc4s3)OCCO5)CC2)cc1,"activity change, negative = inhibition",[1],inconclusive: 10.4%
Cc1ccc(-n2nc(C)c3c(-c4cccs4)c(C#N)c(N)nc32)cc1,Potency,[1],"inconclusive: 7.94 µM [rising, partial curve]"
CCOC(=O)CCSc1nc2c(c(C(F)(F)F)c1C#N)CCC2,"activity change, negative = inhibition",[1],inactive
Cc1noc(C)c1C(=O)N1CCC[C@@]2(CCN(Cc3ccc(C#N)cc3)C2)C1,"activity change, negative = inhibition",[1],inactive
CCn1cc(C(=O)NCCOC)c(=O)c2ccc(C)nc21,Potency,[1],"inconclusive: 15.8 µM [rising, single point]"
CNc1oc(-c2cccc3ccccc23)nc1C#N,Potency,[1],"inconclusive: 10 µM [rising, partial curve]"
Cc1cc(NC(=O)CSc2nc3c([nH]c4ccccc43)c(=O)n2-c2cccc(C(F)(F)F)c2)no1,Potency,[1],active: 2 µM
Cc1cc(C)c2c(CC(=O)N(CCC#N)Cc3cccnc3)coc2c1,"activity change, negative = inhibition",[1],inactive
CCCn1c(C)nc2c(NC3CCCCC3)nc(C)nc21,Potency,[1],"inconclusive: 10 µM [rising, partial curve]"
Cc1cccc(C)c1NC(=O)C[N+](C)(C)C,"activity change, negative = inhibition",[1],inconclusive: -27.8%
same,"activity change, negative = inhibition",at 38.2 µM (top of the series),inactive: 0.554%
COc1ccc(-c2cc(C(=O)Nc3c(C)nn(Cc4ccccc4Cl)c3C)no2)cc1OC,Potency,[1],"inconclusive: 7.94 µM [rising, partial curve]"
CCCOC(=O)CSc1nnc(-c2cc(OC)c(OC)c(OC)c2)o1,Potency,[1],"inconclusive: 12.6 µM [rising, single point]"
COc1ccc(S(=O)(=O)N2CCCCCC2)cc1C(=O)OCc1c(C)noc1C,Potency,[1],"inconclusive: 12.6 µM [rising, single point]"
O=c1c2cc(Cl)ccc2[nH]c(=S)n1Cc1ccco1,Potency,[1],"inconclusive: 25.1 µM [rising, single point]"
O=C(CCN1C(=O)C2C3C=CC(C3)C2C1=O)Nc1ccc2c(c1)OCO2 (centres undefined),Potency,[1],"inconclusive: 0.126 µM [falling, full curve, poor fit]"
CCCC(=O)Nc1cc(C)c2c(=O)oc3ccccc3c2n1,"activity change, negative = inhibition",[1],inconclusive: -11.9%
O=C(c1cnn2ccccc12)N(Cc1ccco1)C1CCCC1,"activity change, negative = inhibition",[1],inactive
CC(C)(C)NS(=O)(=O)c1ccc(OCC(=O)Nc2ccc3c(c2)OCCO3)cc1,"activity change, negative = inhibition",[1],inactive
Cc1cc(C)c2c(c1)cc(C)c1nnc(SCC(=O)Nc3cc(C)on3)n12,"activity change, negative = inhibition",[1],inconclusive: 14.7%
COc1ccc2c(c1)cc1n2CCN=C1N,"activity change, negative = inhibition",[1],inactive
CC(C)OCCCn1c(-c2ccco2)nc2nc3ccccc3nc21,Potency,[1],active: 7.94 µM
CCNc1nc(N)nc(Oc2ccc(C(=O)OC)cc2)n1,"activity change, negative = inhibition",[1],inactive
O=C(NCc1ccc2c(c1)OCO2)c1cccc(S(=O)(=O)N2CCOCC2)c1,"activity change, negative = inhibition",[1],inconclusive: 1.57%
CCOC(=O)c1ccc2c(c1)N(CC(=O)N1CCCC1)C(=O)C(C)(C)O2,"activity change, negative = inhibition",[1],inactive
Cn1c(SCc2ccccn2)nnc1-c1ccncc1,"activity change, negative = inhibition",[1],inactive
CCCCC(c1nnnn1CS(=O)(=O)c1ccc(C)cc1)N1CCN(c2ccccc2)CC1 (centres undefined),"activity change, negative = inhibition",[1],inconclusive: -7.39%
O=C(CC1SC2=NCCN2C1=O)Nc1ccc(Br)cc1 (centres undefined),"activity change, negative = inhibition",[1],inactive
N=c1c2c(-c3ccccc3)c(-c3ccccc3)oc2ncn1CCCN1CCOCC1,"activity change, negative = inhibition",[1],inconclusive: 52.9%
COc1ccc(-n2c(N)c(C(=O)NCC3CCCO3)c3nc4ccccc4nc32)c(OC)c1 (centres undefined),Potency,[1],"inconclusive: 10 µM [rising, partial curve]"
CC(=O)Oc1cccc(N2C(=O)C3CC=C(Cl)CC3C2=O)c1 (centres undefined),"activity change, negative = inhibition",[1],inactive
